Three molecules from paper PMC7949147 can be followed below.

Amino acid sequences for entries named in this document (tags omitted).
UniProt Q8VI36: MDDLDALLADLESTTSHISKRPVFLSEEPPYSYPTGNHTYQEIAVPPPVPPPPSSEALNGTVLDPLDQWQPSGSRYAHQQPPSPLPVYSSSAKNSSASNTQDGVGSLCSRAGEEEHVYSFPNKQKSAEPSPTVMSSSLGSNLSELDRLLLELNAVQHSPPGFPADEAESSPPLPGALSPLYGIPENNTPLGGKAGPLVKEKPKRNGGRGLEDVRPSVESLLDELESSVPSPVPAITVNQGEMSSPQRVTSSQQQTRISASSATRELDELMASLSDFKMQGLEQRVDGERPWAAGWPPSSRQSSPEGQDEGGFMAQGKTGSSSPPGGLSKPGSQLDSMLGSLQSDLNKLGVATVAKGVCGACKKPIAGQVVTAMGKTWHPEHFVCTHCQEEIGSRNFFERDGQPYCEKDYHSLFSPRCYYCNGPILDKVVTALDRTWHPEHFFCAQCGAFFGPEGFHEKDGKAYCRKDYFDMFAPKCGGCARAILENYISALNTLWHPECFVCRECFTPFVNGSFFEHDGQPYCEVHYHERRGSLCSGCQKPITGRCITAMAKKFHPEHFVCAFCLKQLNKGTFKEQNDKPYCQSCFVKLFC

Results are given in words; binding and its absence hold for the method and conditions named. Binding seen in cells or lysates may run through a third protein. Some entries that bind do so weakly or less than the wild type. Tags and fused reporters may be left off the sequences shown.

Holding throughout (test): co-IP; anti-FLAG M2 resin, 12 h immunoprecipitation of FLAG-ILK from lysates of CD cells (starved overnight, plated 4 h on FN-coated dishes); lysis in 10 mM Tris-HCl, 50 mM NaCl, 10% glycerol, 1% Igepal C630, pH 7.6; 1.0 mg total protein; western blot
(In general: In western blotting, separated proteins are transferred to a membrane and probed.)

The target in assay [1] is T1, FLAG-tagged ILK K220M mutant (UniProt O55222).
T1 sequence: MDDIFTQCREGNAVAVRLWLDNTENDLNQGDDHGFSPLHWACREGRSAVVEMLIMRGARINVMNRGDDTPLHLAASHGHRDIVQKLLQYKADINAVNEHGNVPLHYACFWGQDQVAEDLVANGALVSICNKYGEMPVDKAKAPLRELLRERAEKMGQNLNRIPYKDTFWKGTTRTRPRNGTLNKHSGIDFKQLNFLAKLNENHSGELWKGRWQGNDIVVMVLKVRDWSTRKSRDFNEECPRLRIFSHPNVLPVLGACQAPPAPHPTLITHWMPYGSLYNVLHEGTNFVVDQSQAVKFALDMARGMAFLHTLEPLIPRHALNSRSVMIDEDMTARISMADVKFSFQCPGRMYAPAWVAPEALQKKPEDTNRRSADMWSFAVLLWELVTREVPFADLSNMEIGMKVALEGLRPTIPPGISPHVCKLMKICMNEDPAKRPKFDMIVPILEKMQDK

The target of assay [2] is T2, FLAG-tagged ILK V386G/T387G (paxillin-binding site, PBS) mutant (UniProt O55222).
T2 sequence: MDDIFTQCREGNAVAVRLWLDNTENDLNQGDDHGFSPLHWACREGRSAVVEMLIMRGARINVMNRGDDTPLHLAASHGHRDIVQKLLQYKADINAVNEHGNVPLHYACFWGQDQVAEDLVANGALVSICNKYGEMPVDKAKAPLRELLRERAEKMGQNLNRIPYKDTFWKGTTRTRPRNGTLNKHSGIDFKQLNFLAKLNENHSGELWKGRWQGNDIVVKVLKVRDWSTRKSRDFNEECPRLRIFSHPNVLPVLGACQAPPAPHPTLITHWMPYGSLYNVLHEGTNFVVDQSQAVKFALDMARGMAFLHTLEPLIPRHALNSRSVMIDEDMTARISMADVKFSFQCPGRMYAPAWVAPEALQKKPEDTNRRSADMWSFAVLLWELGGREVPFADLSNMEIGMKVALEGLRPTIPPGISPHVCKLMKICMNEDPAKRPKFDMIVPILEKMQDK

Assay [3] deals with T3, FLAG-tagged full-length integrin-linked kinase (ILK), wild type (UniProt O55222).
T3 sequence: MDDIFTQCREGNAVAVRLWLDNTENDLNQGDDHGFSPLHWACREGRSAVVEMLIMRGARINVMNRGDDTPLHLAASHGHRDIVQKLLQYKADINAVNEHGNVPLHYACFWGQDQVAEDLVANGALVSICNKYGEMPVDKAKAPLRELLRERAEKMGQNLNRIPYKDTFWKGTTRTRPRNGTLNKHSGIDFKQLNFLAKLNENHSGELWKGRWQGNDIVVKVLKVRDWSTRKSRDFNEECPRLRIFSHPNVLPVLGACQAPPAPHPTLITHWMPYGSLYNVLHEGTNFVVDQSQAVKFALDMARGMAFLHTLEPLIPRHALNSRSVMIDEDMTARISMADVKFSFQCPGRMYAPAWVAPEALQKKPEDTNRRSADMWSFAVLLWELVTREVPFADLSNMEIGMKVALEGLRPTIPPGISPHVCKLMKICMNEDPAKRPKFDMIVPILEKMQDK

Turning to paxillin (from UniProt Q8VI36 1-591), the binding entry in assay [1] is reported as “no binding”; in assay [2], “no binding”; in assay [3], “binds”.

B1: α-parvin (protein, UniProt Q9EPC1 1-372)
chain: MATSPQKSPLVPKSPTPKSPPSRKKDDSFLGKLGGTLARRKKAKEVSEFQEEGMNAINLPLSPISFELDPEDTLLEENEVRTMVDPNSRNDPKLQELMKVLIDWINDVLVGERIIVKDLAEDLYDGQVLQKLFEKLESEKLNVAEVTQSEIAQKQKLQTVLEKINETLKLPPRSIKWNVDSVHAKNLVAILHLLVALSQYFRAPIRLPDHVSIQVVVVQKREGILQSRQIQEEITGNTEALSGRHERDAFDTLFDHAPDKLNVVKKTLITFVNKHLNKLNLEVTELETQFADGVYLVLLMGLLEGYFVPLHSFFLTPDSFEQKVLNVSFAFELMQDGGLEKPKPRPEDIVNCDLKSTLRVLYNLFTKYRNVE
B1: the binding result is “no binding” in assay [1], “no binding” in assay [2] and “binds” in assay [3].

B2: β-parvin (protein, UniProt Q9ES46 1-365)
chain: MSSAPPRSPTPRAPKMKKDESFLGKLGGTLARKKKTREVTDLQEEGKSAINSPMAPALVDIHPEDTQLEENEERTMIDPTSREDPKFKELVKVLLDWINDVLAEERIIVKQLEEDLYDGQVLQKLLEKLAHCKLNVAEVTQSEIGQKQKLQTVLEAVQDLLRPHGWPLRWNVDSIHGKNLVAILHLLVSLAMHFRAPIHLPEHVTVQVVVVRKREGLLHSSHISEELTTTTEIMMGRFERDAFDTLFDHAPDKLNLVKKSLITFVNKHLNKLNLEVTDLETQFADGVYLVLLLGLLEDYFVPLHNFYLTPDSFDQKVHNVAFAFELMLDGGLKKPKARPEDVVNLDLKSTLRVLYTLFTKYKDVE
On to B2, for which the values for the binding entry in assay [1], in assay [2] and in assay [3] were “no binding”, “no binding” and “binds”, respectively.
